Test results published in PubChem BioAssay AID1347073 (National Center for Advancing Translational Sciences (NCATS), 2019).
Screen size: about 45,000 compounds; about 200 (0.44%) were called active. Not shown: some 7% with an inconclusive outcome. Calls come from the whole dose curve; as a rule, active = well fitted activation curve with a large enough effect; inconclusive = small, poorly fitted or top-dose-only effect; inactive = no such curve, though single readings can be large or run the other way. This is one part of the list.

Assay: qHTS of TDP-43 Inhibitors: NCGC Sytravon Library Screen; note: 0% is about no effect; nearly all actives have a fitted effect of over 55% in size
Details: yeast TDP-43 toxicity rescue, BacTiter-Glo growth, 24 h; series mostly up to 46.1 µM; growth rescue (activation): at the top concentration
Summary of the method: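 TDP-43-expressing yeast, pregrown in raffinose, seeded at OD600 0.02 in galactose medium with compound for 24 hr at 30 deg C. Growth read by BacTiter-Glo luminescence, so rescue of toxicity appears as activation.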

Structure (SMILES)	growth rescue (activation)
O=C(NCc1ccccn1)c1ccc(Cl)c(S(=O)(=O)Nc2ccccc2C(=O)NCc2ccccn2)c1	inactive: -6.41%
O=C(O)c1cccc(S(=O)(=O)N(Cc2ccccc2)c2ccc(Cl)cc2)c1	inactive: 10.2%
Cc1ccc(Cn2ncc(C)c2N)o1	inactive: -28.6%
COc1cccc(/C=N/Nc2nc3ccccc3n3cnnc23)c1O	inactive: -0.257%
Cc1ccc(N=Cc2cc3c(cc2O)OC(N)=C(C#N)C3c2ccccc2)cc1 (stereo unspecified)	inactive: -24.2%
Cc1ccccc1C(=O)Nc1ccc(S(=O)(=O)N2CC(C)OC(C)C2)cc1 (stereo unspecified)	inactive: 1.03%
Cn1cnnc1SCc1ccc(C(=O)N/N=C/c2cccs2)cc1	inactive: -12.3%
CCCOc1cccc(C(=O)NCCNC(=O)c2ccc(C)nc2)c1	inactive: 10.1%
CS(=O)(=O)N1CCC(Oc2ccccc2C(=O)N2CCN(CC3CC3)CC2)CC1	inactive: 12.6%
O=C(c1cccc(C(F)(F)F)c1)N1CCOC12CCN(c1ncc(C(F)(F)F)cc1Cl)CC2	inactive: 29.8%
Cc1cccc(/C(N)=N/OC(=O)c2ccc3c(c2)OCO3)c1	inactive: -93%
COc1ccc(CN(CCC(c2ccccc2)c2ccc(OC(C)C)cc2)C(=O)CCl)cc1OC (stereo unspecified)	inactive: 8.69%
CCOc1cc(NC(=S)NCCOC)c(OCC)cc1NC(=O)c1ccco1	inactive: 9.36%
O=C(O)CCCCCN1C(=O)/C(=C/c2cn(-c3ccccc3)nc2-c2cccs2)SC1=S	inactive: -1.37%
COc1ccc2c(c1)-c1nc(NC(=O)c3ccccc3F)sc1CC2	inactive: 13.5%
CCC(=O)N1CCN(C(C)=O)C1c1ccccc1 (stereo unspecified)	inactive: -2.56%
CCCc1cc(C(=O)N2CCC(N3CCC(C(=O)NC(C)C)CC3)CC2)n(C)n1	inactive: 6.38%
O=C(NCC1CCCO1)c1cc2ccccc2oc1=O (stereo unspecified)	inactive: 6.86%
CCS(=O)(=O)c1ccc2oc(Nc3ccccc3Br)nc2c1	inactive: 29.4%
CC1(C)CC(=O)C2=C(C1)OC(N)=C(C#N)C2c1cccs1 (stereo unspecified)	inactive: -3.97%
CCC(=O)NC(=S)Nc1cccc(-c2nc3ncccc3o2)c1	inactive: -9.39%
C[C@H](NC(=O)c1ccccc1Cl)C(=O)NCc1cccs1	inactive: 10.1%

Structure (SMILES)	growth rescue (activation)
O=C(Nc1cccnc1)c1ccc(NS(=O)(=O)c2cccc([N+](=O)[O-])c2)cc1	inactive: 10.2%
CC(/C=N/NC(=O)c1cc(-c2ccc3ccccc3c2)n[nH]1)=C\c1ccco1	inactive: 17.9%
NC(=O)COC(=O)/C=C/c1ccc(S(=O)(=O)N2CCCCCC2)cc1	inactive: 13.4%
COc1ccc(NC(=O)Cc2c(Sc3ccccc3)c3ccccc3n2C)cc1	inactive: -7.81%
CCOc1ccccc1NC(=O)C1CCCN(c2c(CC)c(C)nc3ncnn23)C1 (stereo unspecified)	inactive: 14.8%
O=C(c1ccccc1-c1nc(-c2ccccc2Cl)no1)N1CCOCC1	inactive: 1.2%
COc1ccc(C(=O)C2CCCN(Cc3nc4ccccc4nc3C)C2)cc1OC (stereo unspecified)	inactive: -4.55%
Cc1cc(C)nc(SCC(=O)NC(=O)c2ccccc2O)n1	inactive: 12.1%
CCOC(=O)c1c(C)[nH]c(C(=O)OC)c1CCC(=O)OC	inactive: 37.3%
COc1cc(NS(=O)(=O)c2ccc(NC(=O)/C=C/c3cccc([N+](=O)[O-])c3)cc2)ncn1	inactive: -5.84%
C=C(C)C(=O)Nc1ccc2c(c1)OCCOCCOCCO2	inactive: 2.56%
COc1ccc(C(=O)N2CCCCCC2)cc1OC1CCN(C(C)=O)CC1	inactive: 8.32%
O=C(COC(=O)c1cccnc1Cl)NCc1ccc2c(c1)OCO2	inactive: 5.49%
Cc1c(NC(=O)CCc2ccc(S(=O)(=O)N3CCOCC3)cc2)c(=O)n(-c2ccccc2)n1C	inactive: 7.47%
O=C(O)Cn1c(Cc2ccccc2)nc2ccccc21	inactive: -0.723%
CCOC(=O)c1c(C)n(S(=O)(=O)c2ccc(C)cc2)c2ccc(O)c(C(=O)O)c12	inactive: -11.1%
O=C(COC(=O)c1ccc(O)cc1)Nc1ncc(Cl)cc1Cl	inactive: -2.15%
CC1(C)Cc2ccccc2-c2nc3n(c(=O)c21)CCS3	inactive: 13.7%
Cc1ccc(C2(C)NC(=O)N(CC(=O)Nc3cc(S(=O)(=O)N(C)C)ccc3C)C2=O)cc1 (stereo unspecified)	inactive: -6.34%
CCN(CCO)c1ccc(-n2c(N)c(C(=O)OC)c3nc4ccccc4nc32)cc1	inactive: -1.65%
Cc1nc2c(C)cccn2c1/C(O)=C1\C(=O)C(=O)N(CCN(C)C)C1c1ccco1 (stereo unspecified)	inactive: 3.81%
Cc1ccc(-c2nnc(SCC(=O)NC3CCCC3)n2C)cc1	inactive: 12.8%

Structure (SMILES)	growth rescue (activation)
CC(=O)Nc1ccc(NC(=O)Cn2cnc3c(cnn3C(C)(C)C)c2=O)cc1	inactive: -6.69%
CCCCNS(=O)(=O)c1ccc(NC(=O)C(Sc2ccccc2)c2ccccc2)cc1 (stereo unspecified)	inactive: -12.7%
CN(C)CCNS(=O)(=O)c1ccc(N2CCc3ccccc32)c([N+](=O)[O-])c1	inactive: -8.49%
O=C1CCC([N+](=O)[O-])C(c2ccc(F)c(Br)c2)N1 (stereo unspecified)	inactive: -9.52%
CCC(CC)C(=O)N(C)c1c(C)nc2c(OCc3ccc(Cl)cc3Cl)cccn12	inactive: 5.16%
COc1cc(NC(=S)N2CCCCC2C)c(OC)cc1Cl (stereo unspecified)	inactive: 13.2%
O=C(NCc1ccccn1)c1ccc(CNS(=O)(=O)c2cccc(Cl)c2)cc1	inactive: 12.2%
CN(C)C(CNC(=O)c1ccc(Br)cc1)c1ccco1 (stereo unspecified)	inactive: -24.6%
COc1cc(C(=O)NCCC(=O)N2CCCCC2)cc(OC)c1OC	inactive: 12.4%
Cc1c(Cl)sn(-c2ccc(Cl)cc2)c1=O	inactive: -94%
Cc1nn(Cc2noc(C(=O)NCCc3ccccn3)n2)c(C)c1Br	inactive: 4.67%
CCCCNC(=O)C1(C)CCN1Cc1ccc(C(=O)OCC)cc1 (stereo unspecified)	inactive: -2.79%
O=C(N/N=C/c1ccc([N+](=O)[O-])cc1)C(=O)N1CCCC1	inactive: 10.7%
CC(=O)OC[C@@H]1CN(Cc2ccccc2)C[C@H](n2cnc3c(NC4CCC4)ncnc32)O1	inactive: -2.8%
CC(C)N(C(=O)CSc1n[nH]c(=O)n1CCc1ccccc1)C(C)C	inactive: 3.24%
N#CC1=C(N)Oc2nc(-c3ccccc3)[nH]c2C1c1cccnc1 (stereo unspecified)	inactive: -24.3%
O=c1cc(CN2CCC(Cc3ccccc3)CC2)nc2sccn12	inactive: 12.7%
CCCNC(=O)NC(=O)CN1CCCC1c1ccc2c(c1)OCCO2 (stereo unspecified)	inactive: -17.2%
COc1ccc(CNC(=O)COC(=O)c2ccc(OCc3c(C)noc3C)cc2)cc1OC	inactive: 5.66%
N#C/C(=C\c1c(Oc2ccccc2F)nc2ccccn2c1=O)C(=O)NC1CCS(=O)(=O)C1 (stereo unspecified)	inactive: 18%
Cc1ccccc1OCC(=O)N/N=C1\SCC(=O)N1Cc1ccccc1	inactive: 5.13%
CCc1nnc2c(NCCc3ccc(OC)c(OC)c3)nc3ccccc3n12	inactive: 0.632%

Structure (SMILES)	growth rescue (activation)
CCN(Cc1ccc(OC)c(F)c1)C(=O)CCl	inactive: 1.74%
COc1ccc(OC)c(NC(=O)Cn2c(CCC(=O)O)ccc2-c2ccc(C)cc2)c1	inactive: -0.827%
COc1ccccc1CCc1nnc(CCC(=O)NCCOc2cccnc2)o1	inactive: 0.0967%
CC(=O)Nc1cccc(NC(=O)/C=C/c2ccc(S(=O)(=O)N3CCOCC3)cc2)c1	inactive: -18.5%
CC(C)C[C@H](NC(=O)c1cc2cc(Cl)ccc2n1C)C(=O)N1CCC(C(=O)O)CC1	inactive: -17.9%
N#Cc1cc2cc3c(cc2nc1SCC(=O)N1CCCC1)OCCO3	inactive: 3.41%
CC(=O)CC(=O)Nc1ncccn1	inactive: -14.9%
O=C(COc1ccccc1)NC1CCSC1=O (stereo unspecified)	inactive: 7.97%
COc1ccc(CNCCC(c2ccc(OC)cc2)c2ccccc2OC)cc1 (stereo unspecified)	inactive: 2.65%
O=C(NCc1ccccn1)c1ccc(Cn2cc(C(F)(F)F)ccc2=O)cc1	inactive: 5.6%
Cc1ccc(C(=O)N2CCC(C(=O)NC3CCCC3)CC2)cc1	inactive: -4.27%
COc1ccc(-c2cc(C(F)(F)F)nc(SCCC(=O)Nc3cc(C)on3)n2)cc1	inactive: 15.2%
Cc1ccc(S(=O)(=O)Nc2cc3c(cc2C#N)OCO3)cc1C(N)=O	inactive: -2.41%
O=C(Nc1cccc(O)c1)c1cc(-c2cccs2)on1	inactive: 14.3%
COc1ccc(/C=N/NC(=O)c2ccccc2O)cc1CN1CCOCC1	inactive: 1.56%
CC(Oc1ccc(F)cc1)C(=O)Nc1cc(-c2ccc(F)c(F)c2)no1 (stereo unspecified)	inactive: 14%
CCN(/N=C/C=C/c1ccccc1)c1cc(=O)n(C)c(=O)[nH]1	inactive: -6.39%
NC(=O)c1nsc(C(=O)N(c2ccccc2)C(C(=O)NCC2CCCO2)c2ccc(F)cc2)c1N (stereo unspecified)	inactive: -2.04%
CCOCCCN1CN(S(=O)(=O)c2ccc(Cl)cc2)c2nc3ccccc3nc21	inactive: 31.6%
Cc1cc([N+](=O)[O-])nn1CCCC(=O)NCc1ccc(F)cc1	inactive: 1%
COc1ccc(CNC(=O)COC(=O)c2cc3ccccc3o2)cc1	inactive: 8.46%
Cc1ccc(OCC(=O)Nc2ccc(F)cc2)c([N+](=O)[O-])n1	inactive: 24.2%

Structure (SMILES)	growth rescue (activation)
OC[C@@H]1CN(Cc2ccccc2)C[C@H](n2cnc3c(N4CCOCC4)ncnc32)O1	inactive: -4.76%
O=C(CSc1n[nH]c(-c2ccncc2)n1)Nc1ccc(Cl)c(Cl)c1	inactive: -11.8%
Cc1onc(-c2c(F)cccc2Cl)c1C(=O)N1CCCC1	inactive: 26.7%
O=C(CCN1C(=O)c2ccc([N+](=O)[O-])cc2C1=O)Nc1ccccc1C(=O)O	inactive: -5.18%
CCOc1ccc(NC(=O)COC(=O)C2CC2C)cc1 (stereo unspecified)	inactive: 10.8%
COCCNC(=O)C1(C)CCCN(C(=O)c2cc(C)oc2C)C1 (stereo unspecified)	inactive: 5.36%
O=C(Cc1ccccc1F)NCC1(N2CCOCC2)CCCCC1	inactive: 19.8%
COc1ccc(CNC(=O)C2(C)Cc3c(-c4ccc5c(c4)OCO5)ccnc3O2)cc1OC (stereo unspecified)	inactive: 22.5%
CCCCN(C)CCC(=O)Nc1ccc(Cl)cc1	inactive: 3.32%
Cc1nc(SC(C(=O)c2ccccc2)c2ccccc2)nc2ccccc12 (stereo unspecified)	inactive: 9.05%
Cc1ccc(-c2ccc(S(=O)(=O)NCc3ccco3)cc2)cc1	inactive: 10.6%
NC(=O)c1ccc(SCC(=O)NC2CCCCC2)c([N+](=O)[O-])c1	inactive: 4.03%
CC(=O)c1c(NC(=O)c2ccccc2)[nH]c(-c2ccccc2)nc1=S	inactive: 16.3%
COc1cc(/C=N/NC(=S)Nc2cccc(C(=O)O)c2)cc(OC)c1OC	inactive: 7.5%
NC(=O)C1CCN(c2ccc(S(=O)(=O)N3CCCCC3)cc2[N+](=O)[O-])CC1	inactive: 6.1%
COc1c(N2CCN(C(=S)NCc3ccccc3)C(C)C2)c(F)cc2c(=O)c(C(=O)O)cn(C3CC3)c12 (stereo unspecified)	inactive: -21.1%
CCN(C(=O)Cn1c(=O)oc2cc(S(=O)(=O)N3CCCC3)ccc21)c1cccc(C)c1	inactive: -1.72%
CC(=NNC(=O)c1cc(C)nc2ccccc12)c1ccc(N2CCOCC2)cc1	inactive: 22.2%
